# PMC4336329 (PLoS ONE, 2015)
# Among all 310,000 compounds or so, about 2,200 (0.71%) showed an effect of 50% or more. The effect is printed as a negative number. The list shows a part of the results.
# Target: human ether-à-go-go-related gene (hERG) potassium channel (human, UniProt Q12809)
# Assay: primary screen, population patch clamp on CHO cells stably expressing hERG
# Chain of human ether-à-go-go-related gene (hERG) potassium channel (Q12809 whole entry, looked up): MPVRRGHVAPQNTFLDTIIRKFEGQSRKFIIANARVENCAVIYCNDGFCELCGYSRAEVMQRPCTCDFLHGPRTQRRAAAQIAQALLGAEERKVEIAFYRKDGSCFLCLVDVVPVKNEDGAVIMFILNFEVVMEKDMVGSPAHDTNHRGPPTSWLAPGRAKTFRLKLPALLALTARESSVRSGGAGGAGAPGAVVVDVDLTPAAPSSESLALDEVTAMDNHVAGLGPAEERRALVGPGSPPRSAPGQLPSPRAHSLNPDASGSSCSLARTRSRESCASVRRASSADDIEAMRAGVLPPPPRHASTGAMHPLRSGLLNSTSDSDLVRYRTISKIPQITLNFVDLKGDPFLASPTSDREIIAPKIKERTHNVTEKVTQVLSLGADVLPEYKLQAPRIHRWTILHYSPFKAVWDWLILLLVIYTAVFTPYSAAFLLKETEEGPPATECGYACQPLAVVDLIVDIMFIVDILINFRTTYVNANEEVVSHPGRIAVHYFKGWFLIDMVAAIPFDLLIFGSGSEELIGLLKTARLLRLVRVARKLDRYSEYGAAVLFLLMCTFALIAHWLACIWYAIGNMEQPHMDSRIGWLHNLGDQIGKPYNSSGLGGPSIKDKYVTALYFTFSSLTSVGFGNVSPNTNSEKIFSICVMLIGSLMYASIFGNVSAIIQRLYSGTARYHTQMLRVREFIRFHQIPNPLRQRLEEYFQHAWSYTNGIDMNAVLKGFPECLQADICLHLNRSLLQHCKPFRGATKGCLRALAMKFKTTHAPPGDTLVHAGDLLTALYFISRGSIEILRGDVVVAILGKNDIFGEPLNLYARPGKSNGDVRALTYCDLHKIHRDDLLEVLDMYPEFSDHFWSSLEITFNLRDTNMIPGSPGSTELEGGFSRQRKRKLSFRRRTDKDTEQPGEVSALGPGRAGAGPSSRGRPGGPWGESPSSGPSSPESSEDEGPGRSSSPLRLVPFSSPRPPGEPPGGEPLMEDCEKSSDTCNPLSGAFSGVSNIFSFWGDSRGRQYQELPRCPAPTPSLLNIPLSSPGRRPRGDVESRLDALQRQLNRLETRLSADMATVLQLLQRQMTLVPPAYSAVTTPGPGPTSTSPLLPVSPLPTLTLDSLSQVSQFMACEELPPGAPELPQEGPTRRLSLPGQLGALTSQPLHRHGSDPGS
row,Structure (SMILES),"hERG current change (%, negative = inhibition) at 1uM"
1,COC(=O)CCCCCN1C(=O)NC(c2ccc(-c3ccccc3)cc2)C(C(=O)OCc2ccccc2)=C1C (centres unmarked),4.36%
2,O=C1C2C3C=CC(C3)C2C(=O)N1c1ccc2ccccc2n1 (centres unmarked),6.71%
3,CCOc1ccc(CN2CCN(Cc3cccn3-c3cccnc3)CC2CCO)cc1 (centres unmarked),-86.3%
4,O=C(N/N=C/c1ccc[nH]1)c1cc2ccccc2cc1O,15.4%
5,COC(=O)c1cccc(NC(=O)/C=C/c2cccc([N+](=O)[O-])c2)c1,5.91%
6,O=C(c1cnc(Cl)c(Cl)c1)N1CCN(S(=O)(=O)c2ccc(F)cc2)CC1,8.2%
7,CCCCOc1ccc(S(=O)(=O)Nc2cccnc2)cc1,2.57%
8,C/C(=N\NC(=O)COc1ccc([N+](=O)[O-])cc1)C(C)(C)C,10.3%
9,Cc1ccccc1[N+](=O)[O-],1.69%
10,CC1CCC2(CC1)NC(=O)N(CC(=O)Nc1ccc3c(c1)OCCCO3)C2=O (centres unmarked),6.19%
11,CC(C)[C@@H](C(=O)NC1CC1)N1C(=O)N2CCc3c([nH]c4ccccc34)[C@@]2(C)C1=O,6.22%
12,CCCCNC(=O)C1CCC(CNc2c(N3CCC(C)CC3)c(=O)c2=O)CC1 (centres unmarked),15.1%
13,CCOc1ccc(Cn2c(C)nc([N+](=O)[O-])c2SCC(O)CCl)cc1[N+](=O)[O-] (centres unmarked),-30.3%
14,Cc1ccc(S(=O)(=O)N2CCN(c3ccc([N+](=O)[O-])cn3)CC2)cc1,9.64%
15,COc1ccc(Br)cc1/C=N/NC(=O)C[n+]1ccccc1.[Cl-],6.88%
16,Cc1nn(C)c(C)c1S(=O)(=O)N(CC(=O)Nc1nccs1)c1ccc(C(C)C)cc1,12.4%
17,Cn1nc(C(C)(C)C)c(NC(=O)c2ccc(F)cc2)c1C(C)(C)C,13.1%
18,COc1cc(NC(=O)CSc2nnc(-c3ccncc3)n2C2CCCCC2)ccc1NC(=O)c1ccco1,5.36%
19,CCN(CC(=O)Nc1ccc(OC)cc1)C(=O)c1ccc2c(=O)n3c(nc2c1)CCC3,14.1%
20,CCOC(=O)C1(CCOC)CCN(C(=O)Cc2ccsc2)CC1,11.3%
21,Cc1ccc(N/N=C(\C#N)C(=N)N2CCCCCC2)cc1,11.3%
22,CCCCN(C(=O)COC(=O)c1ccc(C=O)cc1)c1c(N)n(CCC)c(=O)[nH]c1=O,11%

row,Structure (SMILES),"hERG current change (%, negative = inhibition) at 1uM"
1,C#CCOCCOCCOCCNc1nc(N2CCN(C(=O)[C@H]([C@@H](C)CC)n3cc([C@@H](N)Cc4ccc(O)cc4)nn3)CC2)nc(N2CCN(C(=O)[C@H](CCCCN)n3cc([C@@H](N)CC(C)C)nn3)CC2)n1.Cl,11.4%
2,CC(C)OCCCn1c(=N)c(C(N)=S)cc2c(=O)n3ccccc3nc21,-74.5%
3,CCc1ccc(Nc2nc(N)nc(CSc3nc4ccccc4s3)n2)cc1,11.8%
4,O=C(NCCC(=O)N1CCC2(CC1)NCCc1[nH]cnc12)c1ccc(Br)cc1,22.5%
5,CC(=O)NC1CCN(C(=O)N2CCCC2)CC1,-2.09%
6,Cc1cc(-n2c(SCCC#N)nnc2-c2cccnc2)ccc1Cl,-20%
7,CN(C)S(=O)(=O)c1ccc(N2CCCC2)c(C(=O)N2CCN(S(=O)(=O)c3ccc(F)cc3)CC2)c1,-0.883%
8,CN(CC(=O)NCc1ccccc1Cl)CC(=O)Nc1cccc(F)c1,-6.41%
9,CC(C)C(NC(=O)c1ccco1)C(=O)NC1CCCCCC1 (centres unmarked),11.7%
10,CC(NC(=O)C1CCCN(S(=O)(=O)c2ccc(-n3cnnn3)cc2)C1)c1ccc(F)cc1 (centres unmarked),9.25%
11,CC(C)(C)Nc1nc(OCC#N)nc(N2CCCCC2)n1,-11.3%
12,Clc1ccc(Cn2nnc3ccccc32)cc1,12%
13,CC(C)Oc1ccc2nnnn2n1,10.4%
14,Cc1cc2c(nn1)CCc1nonc1-2,4.35%
15,Cc1nc(CS(=O)(=O)c2ccccn2)sc1C(=O)NNC(=O)c1ccc(Cl)cc1,8.65%
16,NC(=O)c1ccc(NC(=O)C2CCCC2)cc1,15.2%
17,CCCN(Cc1cc2ccc(C)cc2[nH]c1=O)S(=O)(=O)c1ccccc1,12.1%
18,CC(C)Cc1nnc(NC(=O)CCC(=O)NC2CCCCC2)s1,17.2%
19,Cc1cc(C)nc(SCc2csc(N)n2)n1,12.4%
20,CCOC(=O)C1CCN(S(=O)(=O)c2ccc3c(c2)N(C)C(=O)CC(=O)N3C)CC1,-0.306%
21,CC(O)Cn1nc([N+](=O)[O-])nc1N (centres unmarked),9.07%
22,CCN1CCC(O)(C#Cc2ccccc2)CC1,12.6%

row,Structure (SMILES),"hERG current change (%, negative = inhibition) at 1uM"
1,Cc1ccc(CS(=O)(=O)CCC(=O)NCCCN2CCCC2)cc1,15.8%
2,O=C(Nc1ccc(Cl)cc1C(=O)NCc1cccnc1)c1ccco1,12.6%
3,COCCCn1c(SCC(=O)Nc2cccc(C(=O)OC)c2)nnc1-c1ccncc1,5.52%
4,Cc1c(C(=O)Nc2nc3ccccc3[nH]2)oc2ccccc12,9.01%
5,CCc1nnc(NC(=O)CSc2nnc(CNC(=O)c3ccc(OC)c(OC)c3)o2)s1,4.52%
6,CC(=O)Nc1ccc2nc(NC(=O)COc3ccccc3)sc2c1,11.5%
7,COc1ccc(-c2cnnc(N/N=C/c3ccc(O)c(OC)c3)n2)cc1,-12.8%
8,CC(C)SCCCOc1ccc(C(C)(C)C)cc1,13%
9,O=C(CSc1nc2ccccc2c(=O)n1Cc1ccc(F)cc1)NCc1cccs1,2.36%
10,Cc1noc(C)c1COC(=O)c1cc2c(C)nn(-c3ccc(F)cc3)c2s1,9.23%
11,COc1ccc(S(=O)(=O)N2CCCCC2)cc1NC(=O)CN1CCN(C(C)=O)CC1,4.05%
12,C#CCOCCOCCOCCNc1nc(N2CCN(C(=O)[C@H]([C@@H](C)CC)n3cc(CCCC[NH3+])nn3)CC2)nc(N2CCN(C(=O)[C@H]([C@@H](C)CC)n3cc(CCC[NH+]=C(N)N)nn3)CC2)n1.[Cl-],10.3%
13,O=C1OC(C(=O)Nc2nccs2)Cc2ccccc21 (centres unmarked),9.74%
14,O=C1C2C3C=CC(CC3)C2C(=O)N1c1ccccc1F (centres unmarked),14.5%
15,O=[N+]([O-])c1cccnc1N1CCCCC1,7.05%
16,O=C(c1c(F)cccc1F)N1CCC(O)(c2cccnc2)CC1,9.09%
17,O=Cc1ccccc1OCCCOc1cccc2cccnc12,8.66%
18,Cn1c(SCc2ccc(F)cc2)nnc1-c1ccccn1,11.1%
19,CCCOC1CCCN(C(=O)CCc2nnc(-c3ccc4c(c3)OCO4)o2)C1 (centres unmarked),19.9%
20,CC(NC(=O)c1ccco1)c1nc(-c2ccccc2Cl)no1 (centres unmarked),8.16%
21,O=C(NS(=O)(=O)Oc1ccc(F)cc1F)OC[C@@H]1CCCN2CCCCC12 (some centres unmarked),17.3%
22,CC(C)Nc1cc(C(F)(F)F)nc(-c2ccccn2)n1,4.87%

row,Structure (SMILES),"hERG current change (%, negative = inhibition) at 1uM"
1,CC[C@H](C)C(C(=O)N1CCN(C(=O)OC(C)(C)C)CC1)n1cc(C(Cc2ccc(O)cc2)NC(=O)OC(C)(C)C)nn1 (some centres unmarked),9.57%
2,COc1ccccc1NC(=O)C(C)N1CCN(C/C=C/c2ccccc2)CC1 (centres unmarked),-75.2%
3,O=c1[nH]c(=S)n(C2CC2)c(O)c1C=NCCN1CCOCC1,14.5%
4,CCOc1cc(N2CCOCC2)c(OCC)cc1NC(=O)COC(=O)[C@H](Cc1c[nH]c2ccccc12)NC(C)=O,4.98%
5,O=S(=O)(c1ccc(Br)cc1)N1CCN=C1SCc1cccc(F)c1,10.9%
6,COc1cc(OC)c(C2=NOC(C(=O)N3CCc4ccccc4C3)C2)cc1Cl (centres unmarked),-13.7%
7,CN(C(=O)COC(=O)c1cccc(S(=O)(=O)N(C)c2ccccc2)c1)C1CCCCC1,8.94%
8,COc1cc(C(=S)N2CCN(C(c3ccccc3)c3ccccc3)CC2)cc(OC)c1O,17%
9,Cc1ccc(/C(N)=N/OC(=O)C(C)c2ccc([N+](=O)[O-])cc2)cc1 (centres unmarked),10.6%
10,CCCCc1ccc(/C=C2\C(=O)ON=C2c2ccccc2)s1,3.78%
11,CCCCC(C(=O)OCC(=O)c1ccc(OC)cc1)N1C(=O)c2ccccc2C1=O (centres unmarked),14.5%
12,COc1cccc(NS(=O)(=O)c2ccc3[nH]cc(C(=O)NCCCOC(C)C)c(=O)c3c2)c1,9.42%
13,C/C(CC1(O)C(=O)Nc2ccccc21)=N\O (centres unmarked),24%
14,COc1ccc(S(=O)(=O)NCCc2nnc3ccc(SCC(=O)Nc4nc(C)cs4)nn23)cc1,14.9%
15,Cc1ccccc1-c1noc(C(C)NC(=O)c2ccco2)n1 (centres unmarked),13.6%
16,CC(C)(C)c1cc(NC(=O)c2cccs2)no1,7.63%
17,CCn1c(CC(=O)Nc2ccccc2C)nnc1SCC(=O)Nc1nncs1,16.1%
18,C=CCNC(=O)c1ccc2nc(Cc3ccc(OC)cc3)oc2c1,12.1%
19,Cc1ccc(Nc2cc(C)nc3ccccc23)c(C)c1,-1.59%
20,COc1ccc(NC(=O)Cn2ncn3nc(-c4ccc(OC)cc4)cc3c2=O)cc1,30.1%
